Results: a collection of fitness landscapes (doi:10.1126/science.1257360)
Some of the results follow.

B1: PhoQ; a variant is named by its letters at X, in order, P23837 (parent)
chain: MKKLLRLFFPLSLRVRFLLATAAVVLVLSLAYGMVALIGYSVSFDKTTFRLLRGESNLFYTLAKWENNKLHVELPENIDKQSPTMTLIYDENGQLLWAQRDVPWLMKMIQPDWLKSNGFHEIEADVNDTSLLLSGDHSIQQQLQEVREDDDDAEMTHSVAVNVYPATSRMPKLTIVVVDTIPVELKSSYMVWSWFIYVLSANLLLVIPLLWVAAWWSLRPIEALAKEVRELEEHNRELLNPATTRELTSLVRNLNRLLKSERERYDKYRTTLTDLTHSLKTPLXXLQXXLRSLRSEKMSVSDAEPVMLEQISRISQQIGYYLHRASMRGGTLLSRELHPVAPLLDNLTSALNKVYQRKGVNISLDISPEISFVGEQNDFVEVMGNVLDNACKYCLEFVEISARQTDEHLYIVVEDDGPGIPLSKREVIFDRGQRVDTLRPGQGVGLAVAREITEQYEGKIVAGESMLGGARMEVIFGRQHSAPKDE

Variants of: B1
Assay: enrichment ratio after two sorts for PhoP signalling (ratio (wild type AVST 3.29)); higher = more functional
Conditions: with PhoP (E. coli)

| Variant | enrichment ratio |
| --- | --- |
| IYQN | ≤ 0.25 |
| GSQL | 0.629 |
| HELT | ≤ 0.25 |
| YEPI | ≤ 0.25 |
| KNAW | ≤ 0.25 |
| PQAN | ≤ 0.25 |
| KIWS | ≤ 0.25 |
| QALY | ≤ 0.25 |
| FYWC | ≤ 0.25 |
| LTWN | ≤ 0.25 |
| RVMV | ≤ 0.25 |
| PKTM | ≤ 0.25 |
| RDRL | ≤ 0.25 |
| KGST | ≤ 0.25 |
| RYYT | ≤ 0.25 |
| AMTP | ≤ 0.25 |
| LVYL | ≤ 0.25 |
| QKWL | ≤ 0.25 |
| MHHH | ≤ 0.25 |
| VGMP | ≤ 0.25 |
| KPSV | ≤ 0.25 |
| GMQG | ≤ 0.25 |
| WYIG | ≤ 0.25 |
| FAIG | ≤ 0.25 |
| TEAL | 14.7 |
| ICFP | ≤ 0.25 |

| Variant | enrichment ratio |
| --- | --- |
| FTIR | ≤ 0.25 |
| RANA | ≤ 0.25 |
| PYLH | ≤ 0.25 |
| KSKV | ≤ 0.25 |
| FICE | ≤ 0.25 |
| VGAY | ≤ 0.25 |
| WDCH | ≤ 0.25 |
| PMIE | ≤ 0.25 |
| QIAG | ≤ 0.25 |
| DYAT | ≤ 0.25 |
| FCIV | ≤ 0.25 |
| YQAQ | ≤ 0.25 |
| FDQQ | ≤ 0.25 |
| VTVS | ≤ 0.25 |
| ITNL | ≤ 0.25 |
| KYDD | ≤ 0.25 |
| RLMH | ≤ 0.25 |
| DDEP | ≤ 0.25 |
| DCRG | ≤ 0.25 |
| QKMT | ≤ 0.25 |
| IMRL | ≤ 0.25 |
| DMIF | ≤ 0.25 |
| HNKH | ≤ 0.25 |
| SFRN | ≤ 0.25 |
| RQCP | ≤ 0.25 |
| SLNR | ≤ 0.25 |

| Variant | enrichment ratio |
| --- | --- |
| SRPT | ≤ 0.25 |
| VEFQ | ≤ 0.25 |
| NWHW | ≤ 0.25 |
| ISKY | ≤ 0.25 |
| NFKP | ≤ 0.25 |
| QRSK | ≤ 0.25 |
| YIIL | ≤ 0.25 |
| HTFL | ≤ 0.25 |
| LYHA | ≤ 0.25 |
| VIVF | ≤ 0.25 |
| FNKD | ≤ 0.25 |
| NPQW | ≤ 0.25 |
| GLKW | ≤ 0.25 |
| NDSM | ≤ 0.25 |
| PLTV | ≤ 0.25 |
| HFIK | ≤ 0.25 |
| AWQQ | ≤ 0.25 |
| PFIT | ≤ 0.25 |
| YDRK | ≤ 0.25 |
| QESF | ≤ 0.25 |
| DFTC | ≤ 0.25 |
| GPDT | ≤ 0.25 |
| DVHN | ≤ 0.25 |
| SMGM | 5.78 |
| EHIK | ≤ 0.25 |
| VPEP | ≤ 0.25 |

| Variant | enrichment ratio |
| --- | --- |
| TTMY | 7.68 |
| YWIN | ≤ 0.25 |
| GYYD | ≤ 0.25 |
| INEV | ≤ 0.25 |
| RHPE | ≤ 0.25 |
| RNEY | ≤ 0.25 |
| VALA | 0.962 |
| AVAT | ≤ 0.25 |
| TRHE | ≤ 0.25 |
| PDAY | ≤ 0.25 |
| TLGA | 4.68 |
| SQTM | 6.18 |
| RWMR | ≤ 0.25 |
| YNPE | ≤ 0.25 |
| YMML | ≤ 0.25 |
| VRAF | ≤ 0.25 |
| KMQG | ≤ 0.25 |
| AHNI | ≤ 0.25 |
| GTQG | ≤ 0.25 |
| KQVL | ≤ 0.25 |
| VVQC | 12.7 |
| MKLE | ≤ 0.25 |
| RGRK | ≤ 0.25 |
| YWRK | ≤ 0.25 |
| FQST | ≤ 0.25 |
| VEVL | 0.477 |

| Variant | enrichment ratio |
| --- | --- |
| HKPG | ≤ 0.25 |
| YHVK | ≤ 0.25 |
| RFTS | ≤ 0.25 |
| DQIH | ≤ 0.25 |
| KPIF | ≤ 0.25 |
| RMWH | ≤ 0.25 |
| VVCW | ≤ 0.25 |
| CNSQ | ≤ 0.25 |
| AEKL | ≤ 0.25 |
| FEKN | ≤ 0.25 |
| TPKP | ≤ 0.25 |
| EIKS | ≤ 0.25 |
| NYLC | ≤ 0.25 |
| DVSR | ≤ 0.25 |
| THVQ | ≤ 0.25 |
| FPTV | ≤ 0.25 |
| YRPE | ≤ 0.25 |
| EPKC | ≤ 0.25 |
| VEKR | ≤ 0.25 |
| DLAA | ≤ 0.25 |
| IRFE | ≤ 0.25 |
| KNYE | ≤ 0.25 |
| SAVN | 8.55 |
| PILE | ≤ 0.25 |
| GMAA | ≤ 0.25 |
| LAVG | ≤ 0.25 |

| Variant | enrichment ratio |
| --- | --- |
| NFQY | ≤ 0.25 |
| RRNS | ≤ 0.25 |
| SGAT | 5.6 |
| NLHR | ≤ 0.25 |
| DGYP | ≤ 0.25 |
| IGIY | ≤ 0.25 |
| LMAQ | ≤ 0.25 |
| ERPW | ≤ 0.25 |
| HADW | ≤ 0.25 |
| QYGL | ≤ 0.25 |
| SHIF | ≤ 0.25 |
| EKYQ | ≤ 0.25 |
| SHSC | ≤ 0.25 |
| IYTD | ≤ 0.25 |
| IDVD | ≤ 0.25 |
| ADRM | ≤ 0.25 |
| AENS | 16 |
| MAMK | ≤ 0.25 |
| SETN | 7.01 |
| VAPL | ≤ 0.25 |
| LYWV | ≤ 0.25 |
| DFYL | 1.73 |
| GCVK | ≤ 0.25 |
